# Measurements reported in the supplement of paper PMC11876631.
# ± gives the standard deviation of the averaged measurements. Laboratory Escherichia coli strains with one amino-acid change in an essential protein, pooled on minimal glucose agar with carbenicillin or gentamicin at twice the control MIC (plus kanamycin and chloramphenicol for the plasmids), 48 h. Fold change of barcode share against drug-free plates; higher = less susceptible. Active = above 20 in both replicates (the paper's putatively resistant). '<' = one read or none on drug, '>' = one read or none on a drug-free plate. Shares are relative, so most strains fall below 1 when a few take over. Listed are strains with at least 15 reads on both drug-free plates, and hits; most hits rest on fewer reference reads. Replicate rank correlation about 0.5. Edits are read from barcodes.
# B1: ilvC; a variant is named by its letters at X, in order (parent)
# chain: MANYFNTLNLRQQLAQLGKCRFMGRDEFADGASYLQGKKVVIVGCGAQGLNQGLNMRDSGLDISYALRKEAIAEKRASWRKATENGFKVGTYEELIPQADLXINLTPDKQHSDVVRTVQPLMKDGAALGYSHGFNIVEVGEQIRKDITVXXVAPKCPGTEVREEYKRGFGVPTLIAVHPENDPKGEGMAIAKAWAAATGGHRAGVLESSFXAEVKSDLMGEQTIXCGMLQAGSLLCFDKLVEEGTDPAYAEKLIQFGWETITEALKQGGITLXXDRLSNPAKLRAYALSEQLKEIMAPLFQKHMDDIISGEFSSGMMADWANDDKKLLTWREETGKTAFETAPQYEGKIGEQEYFDKGVLMIAMVKAGVELAFETMVDSGIIEESAYYESLHELPLIANTIARKRLYEMNVVISDTAEYGNYLFSYACVPLLKPFMAELQPGDLGKAIPEGAVDNGQLRDVNEAIRSHAIEQVGKKLRGYMTDMKRIAVAG
# B2: yihA; numbered along this chain (parent)
# chain: MTNLNYQQTHFVMSAPDIRHLPSDTGIEVAFAGRSNAGKSSALNTLTNQKSLARTSKTPGRTQLINLFEVADGKRLVDLPGYGYAEVPEEMKRKWQRALGEYLEKRQSLQGLVVLMDIRHPLKDLDQQMIEWAVDSNIAVLVLLTKADKLASGARKAQLNMVREAVLAFNGDVQVETFSSLKKQGVDKLRQKLDTWFSEMQPVEETQDGE
# B3: trpA; numbered along this chain (parent)
# chain: MERYESLFAQLKERKEGAFVPFVTLGDPGIEQSLKIIDTLIEAGADALELGIPFSDPLADGPTIQNATLRAFAAGVTPAQCFEMLALIRQKHPTIPIGLLMYANLVFNKGIDEFYAQCEKVGVDSVLVADVPVEESAPFRQAALRHNVAPIFICPPNADDDLLRQIASYGRGYTYLLSRAGVTGAENRAALPLNHLVAKLKEYNAAPPLQGFGISAPDQVKAAIDAGAAGAISGSAIVKIIEQHINEPEKMLAALKVFVQPMKAATRS
# B4: lysA; a variant is named by its letters at X, in order (parent)
# chain: MPHSLFSTDTDLTAENLLRLPAEFGCPXWXYDAQIIRRQIAALKQFDVVRFAQKACSNIHILRLMREQGVKVDSVSLGEIERALAAGYNPQTHPDDIXXTADVIDQATLERVSELQIPVNAGSVDMLDQLGQVSPGHRVWLRVNPGFGHGHSQKTNTGGENSKHGIWYTDLPAALDVIQRHHLQLVGIHMHIGSGVDYAHLEQXCGAMVRQVIEFGQDLQAISAGGGLSVPYQQGEEAVDTEHYYGLWNAAREQIARHLGHPVKLEIEPGRFLVAQSGVXXTQVRSVKQMGSRHFVLVDAGFNDLMRPAMYGSYHHISALAADGRSLEHAPTVETVVAGPLCESGDVFTQQEGGNVETRALPEVKAGDYLVLHDTGAYGASMSSNYNSRPLLPEVLFDNGQARLIRRRQTIEELLALELL
# Variants of: B1
# Assay: barcode share on antibiotic plates over drug-free plates; higher = less susceptible
# Settings: with Escherichia coli (laboratory strain); antibiotic: carbenicillin; 2× MIC (3.1 µg/mL)
# Description: (§1)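 A pool of E. coli strains, each edited to carry one amino-acid change in an essential protein, was grown for 48 h on minimal glucose agar with or without antibiotic; strain barcodes were sequenced; mean of two replicates.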
row,Variant,fold change of barcode share
1,VAMVLMM,1.39 ± 0.35

# Same assay, conditions: with Escherichia coli (laboratory strain); antibiotic: gentamicin; 2× MIC (MIC 0.45 µg/mL)
row,Variant,fold change of barcode share
1,VAMVLMM,0.0115 ± 0.0057

# Variants of: B2
# Assay: as above
# Settings: with Escherichia coli (laboratory strain); antibiotic: carbenicillin; 2× MIC (3.1 µg/mL)
# Description: as §1
row,Variant,fold change of barcode share
1,L144Q,0.27 ± 0.2
2,L144A,0.22 ± 0.045
3,L112W,0.77 ± 0.17
4,L112Q,0.392 ± 0.077
5,L112A,0.305 ± 0.013
6,V142A,0.33 ± 0.061
7,V142P,0.16 ± 0.15
8,L115W,0.398 ± 0.15
9,L115P,0.271 ± 0.079
10,L141A,0.253 ± 0.11
11,L141D,0.298 ± 0.14
12,V114A,0.45 ± 0.27
13,V114P,0.522 ± 0.12
14,V114D,0.49 ± 0.16
15,V114Q,0.489 ± 0.089
16,L189W,0.304 ± 0.093
17,L189Q,0.382 ± 0.26

# Same assay, conditions: with Escherichia coli (laboratory strain); antibiotic: gentamicin; 2× MIC (MIC 0.45 µg/mL)
row,Variant,fold change of barcode share
1,L144Q,< 0.0168
2,L144A,0.0116 ± 0.0081
3,L112W,0.00375 ± 0.0027
4,L112Q,< 0.00209
5,L112A,0.00346 ± 0.00039
6,V142D,< 0.0213
7,V142P,< 0.013
8,L115A,0.00446 ± 0.0039
9,L115W,2.7 ± 2.9
10,L115Q,0.00348 ± 0.0005
11,L115P,0.00334 ± 0.003
12,L141A,0.00441 ± 0.0014
13,L141D,0.0104 ± 0.0016
14,V114A,0.0039 ± 0.0015
15,V114D,0.0656 ± 0.072
16,V114Q,0.00209 ± 0.0018
17,L143Q,< 0.0126
18,L189P,< 0.00664
19,L189W,0.0042 ± 0.00063
20,L189A,< 0.00158
21,L189Q,0.0135 ± 0.012

# Variants of: B3
# Assay: as above
# Settings: with Escherichia coli (laboratory strain); antibiotic: carbenicillin; 2× MIC (3.1 µg/mL)
# Description: as §1
row,Variant,fold change of barcode share
1,I241P,0.556 ± 0.1
2,I241A,0.523 ± 0.34
3,I241W,0.529 ± 0.2
4,I241Q,0.462 ± 0.11
5,V128Q,0.307 ± 0.093
6,V128W,0.374 ± 0.088
7,V128A,0.301 ± 0.089
8,V128D,0.503 ± 0.028
9,V128P,0.219 ± 0.11
10,V23A,0.228 ± 0.12
11,V23W,0.957 ± 0.33
12,V23Q,0.29 ± 0.047
13,V23D,0.267 ± 0.16
14,V23P,0.501 ± 0.2
15,L85Q,0.195 ± 0.028
16,L85A,0.241 ± 0.039
17,F22D,0.444 ± 0.0095
18,F22P,2.29 ± 0.053
19,F22A,0.354 ± 0.026
20,F22Q,1.72 ± 0.32
21,F22W,0.47 ± 0.038

# Same assay, conditions: with Escherichia coli (laboratory strain); antibiotic: gentamicin; 2× MIC (MIC 0.45 µg/mL)
row,Variant,fold change of barcode share
1,I241P,0.016 ± 0.004
2,I241A,0.0254 ± 0.023
3,I241W,< 0.0159
4,I241Q,0.0373 ± 0.028
5,V128Q,< 0.00431
6,V128W,< 0.00444
7,V128A,< 0.00658
8,V128D,< 0.0108
9,V128P,< 0.00709
10,V23A,0.017 ± 0.0061
11,V23W,0.199 ± 0.26
12,V23Q,0.00658 ± 0.0049
13,V23D,0.0112 ± 0.0057
14,V23P,0.0211 ± 0.02
15,L85Q,< 0.0154
16,L85A,< 0.0227
17,F22D,0.0415 ± 0.019
18,F22A,0.00784 ± 0.0042
19,F22W,0.0215 ± 0.018

# Variants of: B4
# Assay: as above
# Settings: with Escherichia coli (laboratory strain); antibiotic: gentamicin; 2× MIC (MIC 0.45 µg/mL)
# Description: as §1
row,Variant,fold change of barcode share
1,QVVFVLI,0.0264 ± 0.025
2,VVVPVLI,0.0415 ± 0.05
3,VVPFVLI,0.0277 ± 0.022
4,VVQFVLI,0.0408 ± 0.052
5,VVVFVAI,0.305 ± 0.36
6,VPVFVLI,0.0286 ± 0.026
7,VWVFVLI,0.0204 ± 0.025
8,VVVWVLI,0.0753 ± 0.019
9,VAVFVLI,0.0361 ± 0.035
10,VVVFALI,0.0382 ± 0.045
11,PVVFVLI,0.0234 ± 0.025
12,VVVFQLI,0.0725 ± 0.051
13,VDVFVLI,0.117 ± 0.16
14,VVVFVQI,0.0467 ± 0.055
15,WVVFVLI,0.0363 ± 0.043

# Same assay, conditions: with Escherichia coli (laboratory strain); antibiotic: carbenicillin; 2× MIC (3.1 µg/mL)
row,Variant,fold change of barcode share
1,VVVPVLI,0.444 ± 0.048
2,VVPFVLI,0.484 ± 0.042
3,VVQFVLI,0.4 ± 0.03
4,VVVFVAI,0.376 ± 0.014
5,VPVFVLI,0.423 ± 0.065
6,VVVWVLI,0.547 ± 0.078
7,VVVFALI,0.631 ± 0.54
8,VVVFQLI,0.872 ± 0.33
9,VVVFVLI V296Q,0.285 ± 0.14
10,VVVFVLI V296W,0.262 ± 0.057
11,VDVFVLI,0.594 ± 0.094
12,VVVFVQI,0.7 ± 0.29
13,WVVFVLI,0.512 ± 0.078
